Laboratory results as given in paper PMC4336329 (PLoS ONE, 2015).
Hit rate of the full screen: of about 310,000 compounds, about 14,000 (4.5%) showed an effect of 50% or more. Effects have a minus sign here. This is one part of the list.

The compounds below were run against human ether-à-go-go-related gene (hERG) potassium channel (human, UniProt Q12809) (assay: primary screen, population patch clamp on CHO cells stably expressing hERG).
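Further: peak tail current of the secondary pulse compared with the same well before compound.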

Chain of human ether-à-go-go-related gene (hERG) potassium channel (Q12809 whole entry, looked up): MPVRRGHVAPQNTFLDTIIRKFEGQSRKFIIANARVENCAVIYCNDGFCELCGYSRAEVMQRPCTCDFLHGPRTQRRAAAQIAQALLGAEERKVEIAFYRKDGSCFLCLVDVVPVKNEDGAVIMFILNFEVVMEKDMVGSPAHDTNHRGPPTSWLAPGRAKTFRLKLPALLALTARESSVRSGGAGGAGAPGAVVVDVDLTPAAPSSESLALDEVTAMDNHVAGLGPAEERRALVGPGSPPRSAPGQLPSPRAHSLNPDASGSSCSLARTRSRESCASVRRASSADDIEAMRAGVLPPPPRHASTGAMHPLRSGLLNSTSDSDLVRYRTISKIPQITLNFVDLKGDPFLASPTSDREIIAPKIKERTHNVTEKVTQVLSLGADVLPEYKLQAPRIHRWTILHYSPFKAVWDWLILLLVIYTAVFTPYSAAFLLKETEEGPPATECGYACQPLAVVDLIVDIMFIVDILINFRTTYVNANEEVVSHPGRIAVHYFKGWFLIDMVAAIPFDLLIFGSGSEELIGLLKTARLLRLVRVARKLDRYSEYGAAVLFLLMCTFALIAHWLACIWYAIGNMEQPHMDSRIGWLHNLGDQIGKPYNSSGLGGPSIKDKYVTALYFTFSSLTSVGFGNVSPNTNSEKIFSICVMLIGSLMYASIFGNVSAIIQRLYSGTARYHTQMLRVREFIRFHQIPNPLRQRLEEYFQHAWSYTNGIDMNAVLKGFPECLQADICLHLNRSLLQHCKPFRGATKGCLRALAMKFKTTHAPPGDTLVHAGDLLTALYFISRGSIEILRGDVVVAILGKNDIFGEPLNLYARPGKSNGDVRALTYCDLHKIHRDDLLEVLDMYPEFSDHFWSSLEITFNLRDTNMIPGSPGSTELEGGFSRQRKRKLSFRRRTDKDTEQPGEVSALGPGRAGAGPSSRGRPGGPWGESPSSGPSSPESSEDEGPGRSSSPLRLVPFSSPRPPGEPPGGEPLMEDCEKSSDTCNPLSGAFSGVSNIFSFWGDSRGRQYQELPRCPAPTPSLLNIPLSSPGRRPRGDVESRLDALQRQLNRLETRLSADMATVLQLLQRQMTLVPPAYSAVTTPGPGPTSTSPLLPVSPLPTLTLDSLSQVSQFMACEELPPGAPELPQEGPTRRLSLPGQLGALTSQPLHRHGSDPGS

SMILES | hERG current change (%, negative = inhibition) at 10uM [%]
COc1ccc(C(=O)NCc2cn3ccsc3n2)cc1OC | 6.91
O=C(Nc1cccc(C(F)(F)F)c1)c1sc(Cl)nc1C(F)(F)F | -2.01
CC(C)C(CCN1C(=O)c2ccccc2C1=O)c1ccco1 (stereo not drawn) | -18.1
CS(=O)(=O)N(CC(=O)NCCSCc1ccccc1)c1ccccc1Cl | -13.4
O=C(COc1ccc(/C=N/NS(=O)(=O)c2ccccc2)cc1)NCc1ccccc1 | 11.7
CCc1nnc(NC(=O)c2ccc(OCc3c(C)noc3C)c(OC)c2)s1 | 14.8
CCc1ccc(C2=NN(CCC(=O)NCc3cccs3)C(=O)CC2)cc1 | -30.9
O=C(CCn1cccn1)Nc1ccc2c(c1)OCO2 | 20.9
CN(C)Cc1ccccc1OC(=O)N(C)C.O=C(O)/C=C/C(=O)O | -6.2
CC(C)Oc1ccc(C(=O)NC(=S)N2CCOCC2)cc1 | 6.88
CC(NC(=S)Nc1ccccc1OC(F)F)C(C)(C)C (stereo not drawn) | 3.18
O=C(N1CCN(Cc2ccc3c(c2)OCO3)CC1)C12CC3CC(CC(C3)C1)C2 | -25.1
COc1ccc(NC(=O)CSc2nnc(-c3ccco3)n2C)cc1 | -11.2
Cc1sc(NC(=O)CN2CCCC2)nc1-c1ccc2c(c1)CCN2C(=O)c1ccc(F)cc1 | 17.9
CCN(CC(=O)Nc1ccc(OC)cc1)CC(=O)Nc1ccc2c(c1)OCO2 | -34.9
O=C(NCc1ccc(F)cc1)C1CCN(S(=O)(=O)N2CCOCC2)CC1 | -3.23
O=C(COc1ccc(N2C(=O)c3ccccc3C2=O)cc1)c1ccccc1 | 19.4
O=P(O)(O)C(O)C(F)(F)C(F)(F)C(F)(F)C(F)F (stereo not drawn) | 19.8
CC(C)(ONC(=O)Nc1ccccc1Cl)C(=O)O | 5.17
O=C(CCc1ccccc1)Nc1ncc([N+](=O)[O-])s1 | 2.96
COC(=O)c1ccc(Oc2ccc3nncn3n2)cc1 | -9.07
CC(=O)c1cccc(CN2CCN(Cc3ccc(C)cc3)C(CCO)C2)c1 (stereo not drawn) | -69
COCCN1Cc2cccc(C(=O)Nc3ccc(C)c(C)c3)c2C1=O | -45.3

SMILES | hERG current change (%, negative = inhibition) at 10uM [%]
O=C(COC(=O)/C=C/c1ccco1)NCc1ccc2c(c1)OCO2 | 18.3
Br.CCn1c(=N)n(Cc2ccccc2F)c2ccccc21 | -37.5
Cc1ccsc1C1C(C(=O)O)c2ccccc2C(=O)N1C (stereo not drawn) | 18.5
Cc1noc(C)c1C(=O)N1CCN(S(=O)(=O)c2ccc(F)cc2)CC1 | 11.9
COc1cccc(C(=O)Nc2cc(OC)ccc2NC(=O)c2ccco2)c1 | -1.38
CCOC(=O)c1cccc(NC(=O)C2CCCN(S(=O)(=O)c3c(C)n[nH]c3C)C2)c1 (stereo not drawn) | 13.3
Cc1ccccc1OCC(O)Cn1c(NCc2ccccc2)nc2c1c(=O)[nH]c(=O)n2C (stereo not drawn) | -3.37
Cl.OCCN1CCN(CC(O)COCc2ccc3c(c2)OCO3)CC1 (stereo not drawn) | -1.01
Cn1cccc1CC(=O)N/N=C/c1ccco1 | 14.5
CC(C)CC(=O)Nc1nnc(CSCc2ccc(F)cc2)s1 | -2.3
CC(=O)Nc1nonc1-c1nc2ccccc2n1C | 10.7
CCOC(=O)c1c(N=CN(C)C)c2cc([N+](=O)[O-])cnc2n1C | -6.08
COc1ccc(NS(=O)(=O)c2ccc(C)c(C(=O)NNC(=O)c3ccccc3O)c2)cc1 | -2.24
c1ccc(NC(c2ccccc2)c2ccncc2)cc1 (stereo not drawn) | -2.12
CCOC(=O)C1=C(COC(=O)/C=C/c2ccc(SC)cc2)NC(=O)NC1C (stereo not drawn) | 8.74
O=C(CN1CCN(c2ccc([N+](=O)[O-])cc2Cl)CC1)N1CCOCC1 | -45.2
CC(OC(=O)c1ccccc1NCCO)C(=O)Nc1ccnn1C(C)C (stereo not drawn) | 6.22
O=C(COc1ccc(C(=S)N2CCC(Cc3ccccc3)CC2)cc1)N1CCOCC1 | 2.33
O=C(c1cccs1)c1coc2ccc(O)cc12 | 4.53
CCOC(=O)N1CCN(C(=O)CN(C)S(=O)(=O)c2ccc(OC)c(OC)c2)CC1 | 2.77
COCCn1c(C)cc(C2=NNC(=NC(C)(C)C)SC2)c1C | 11.6
Cc1cc(NC(=O)COC(=O)c2ccc(S(=O)(=O)N3CCCc4ccccc43)cc2)no1 | 3.93
